Measured values as given in the supplement of paper PMC3656093.
± gives the standard deviation of the averaged measurements. Over roughly 1,900 compounds, “CD40L-induced NF-kB luciferase activity, plate-corrected, relative to DMSO (0) and IKK inhibitor VII (-100) controls” has its median near 0.032; the lowest 2% begin near -26. Some of the results follow.

Tested on: BL2-NFkB-Luc
Assay: CD40L-induced NF-kB luciferase activity, plate-corrected, relative to DMSO (0) and IKK inhibitor VII (-100) controls (% normalized activity); higher = more NF-kB reporter activity (less inhibition)
Conditions: 9.4 µM; stimulus: tCD40L 64 ng/ml; 4.5 h
Protocol: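 BL2 B cells with a stable NF-kB response-element luciferase reporter (BL2-NFkB-Luc), 384-well. Cells were pre-incubated with compound at 9.4 uM for 1 h at 37 C, then stimulated with 64 ng/ml trimerized CD40L for 4.5 h; luciferase was read with Steady-Glo. Signal was normalised per plate in Genedata (median DMSO neutral control = 0, median IKK inhibitor VII at 50 uM = -100) with Assay Median plate-pattern correction; duplicate plates.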

Row | SMILES | CD40L-induced NF-kB luciferase activity
1 | Nc1ncnc2c1ncn2C1OC(CO)C(O)C1O (stereo not given) | 7.59 ± 2.4
2 | CS(=O)(=O)Oc1ccc2c(c1)O/C(=C\C=C\c1ccccc1)C2=O | -0.6 ± 2.1
3 | CC(C)(C)C(=O)Nc1cccc(OC(F)(F)C(F)Cl)c1 (stereo not given) | 1.52 ± 2.7
4 | O=C(O)CCSc1nc2ccccc2s1 | -42.3 ± 0.52
5 | C[C@]12CCC(=O)C=C1CC[C@@H]1[C@@H]2C(=O)C[C@@]2(C)[C@H]1CC[C@]2(O)C(=O)CO | -6.47 ± 2
6 | CC1CCN(C(=O)Oc2ccccc2)CC1 | 3.44 ± 9.1
7 | CCOC(=O)N1CCC(=C2c3ccc(Cl)cc3CCc3cccnc32)CC1 | -13.7 ± 11
8 | N/C(=N\OS(=O)(=O)c1ccc2ccccc2c1)c1cccnc1 | -3.05 ± 1.9
9 | NC(=O)c1ccccc1O | -0.231 ± 0.98
10 | O=C(CN1C(=O)/C(=C/c2cccc(Br)c2)SC1=S)Nc1cccnc1 | -0.735 ± 7.1
11 | CC(C)=CC/C=C1\CCC(C(=O)O)C(C(=O)O)C1 (stereo not given) | -1.05 ± 3.1
12 | CSCC[C@H](NC(=O)Nc1ccc(C)cc1C)C(=O)O | -0.608 ± 1.7
13 | O=C1c2ccccc2C(=O)C1c1ccccc1 | 6.89 ± 4.6
14 | Clc1ccc2c(c1)C(N1CCNCC1)=Nc1ccccc1O2 | -5.25 ± 0.1
15 | CCc1cc(=O)oc2cc(OCC=C(C)C)ccc12 | 4.36 ± 2.6
16 | O=C(Nc1ccc(C(=O)NC2CCCCC2)cc1)c1cccnc1 | 0.625 ± 0.58
17 | c1ccc(CC2=NCCN2)cc1 | -1.48 ± 3.2
18 | CC(C)(Oc1ccc(CCNC(=O)c2ccc(Cl)cc2)cc1)C(=O)O | -4.16 ± 7.8
19 | OCCN1CCN(CCCN2c3ccccc3Sc3ccc(C(F)(F)F)cc32)CC1 | 1.85 ± 5.4
20 | CCOC(=O)C(=O)N1CCN(c2ccccc2OC)CC1 | -1.99 ± 1.9

Row | SMILES | CD40L-induced NF-kB luciferase activity
21 | O=C(NC1CCCCC1)N1CCc2[nH]c3ccccc3c2C1 | 1.1 ± 4.6
22 | CC(=O)OCC(=O)[C@H]1CC[C@H]2[C@@H]3CC=C4C[C@@H](O)CC[C@]4(C)[C@H]3CC[C@]12C | 1.14 ± 1.8
23 | O=C(O)C1Cc2ccccc2CN1S(=O)(=O)c1ccccc1 (stereo not given) | 8.62 ± 3.4
24 | COc1ccc(C=NCC2COc3ccccc3O2)cc1OC (stereo not given) | 6.18 ± 0.8
25 | O=C(NCCO)c1ccc(Cl)c(Cl)c1 | -2.45 ± 0.73
26 | Cn1c(=O)[nH]c(=O)c2c1ncn2CCN1CCOCC1 | 1.76 ± 0.85
27 | COc1ccc(N2CCN(C(=S)NCc3ccccc3)CC2)cc1 | 1.3 ± 1.4
28 | N#Cc1cc2c([nH]c1=O)CCCC2 | 0.467 ± 4.2
29 | O=C(CN1CCN(Cc2ccccc2)CC1)N1CCCc2c1c(=O)oc1ccc(O)cc21 | 2.23 ± 2.3
30 | COc1ccccc1C1(CC(=O)N2CCCCC2)CCOC(C(C)C)C1 (stereo not given) | -7.48 ± 6.7
31 | O=Cc1ccc(OC(=O)c2cccnc2)cc1 | 0.82 ± 6.7
32 | COc1ccc(C=NNC(=O)CCc2c(C)n[nH]c2C)c(OC)c1OC | 3.32 ± 11
33 | O=C1OC(c2ccc(O)cc2)(c2ccc(O)cc2)c2ccccc21 | 0.943 ± 1.8
34 | CCOc1cc(C=O)ccc1OCCSc1ccc(C)cc1 | 8.64 ± 2
35 | COCC1CCCN(Cc2cn[nH]c2-c2cc3ccccc3o2)C1 (stereo not given) | -1.43 ± 7.7
36 | COc1ccc(CCCC(=O)O)c(C)c1 | 1.85 ± 1.2
37 | CCOc1ccc(C(=O)C(C)=O)c(OCC)c1 | 2.66 ± 2.9
38 | COc1ccc(CN(CCC(c2ccc(F)cc2)C2CCOC(C)(C)C2)C(=O)c2ccco2)cc1 (stereo not given) | -4.2 ± 3.9
39 | COc1ccc(CNC(=O)C2CCN(C(=O)[C@@H](CC(C)C)NC(=O)OC(C)(C)C)CC2)cc1 | 0.475 ± 1.7
40 | CC(C)(CO)CNC(=O)CC1C(=O)NCCN1CC(c1ccccc1)c1ccccc1 (stereo not given) | 4.84 ± 3.6

Row | SMILES | CD40L-induced NF-kB luciferase activity
41 | CCOC(=O)c1cc2cc3ccccc3cc2[nH]1 | 81.2 ± 21
42 | O=[N+]([O-])c1cc(C=Nn2cnnc2)ccc1N1CCCC1 | 3.63 ± 0.46
43 | Clc1ccc(CCNc2ncnc3nc[nH]c23)cc1 | -3.1 ± 2.3
44 | CC(C)C(=O)Nc1cccnc1 | 0.845 ± 5
45 | C/C=C/Cn1c(SC)nc2c1c(=O)[nH]c(=O)n2C | -0.907 ± 1.9
46 | CCCCN1C[C@H](O)[C@@H](O)[C@H](O)[C@H]1CO | 3.27 ± 0.15
47 | c1ccc2c(c1)CCCC2C1=NCCN1 (stereo not given) | -7.25 ± 2
48 | O=C(NCCc1ccccc1)C1CCN(C2CCN(Cc3ccco3)CC2)CC1 | -15.7 ± 8.9
49 | COC(=O)c1ccccc1NC(=O)NCc1ccccc1 | 1.83 ± 0.93
50 | Nc1ccc(S(=O)(=O)NC(=O)c2ccccc2)cc1 | -7.05 ± 4.3
51 | CCC(C)NCCOc1ccc(C(C)(C)c2ccccc2)cc1 (stereo not given) | 3 ± 1.7
52 | C=C(CC)C(=O)c1ccc(OCC(=O)O)c(Cl)c1Cl | 10.8 ± 5.9
53 | C[C@]12CC[C@@H]3c4ccc(O)cc4[C@@H](O)C[C@H]3[C@@H]1CC[C@@H]2O | -4.29 ± 0.53
54 | CN1C(C(=O)Nc2ccccn2)C(=O)c2sccc2S1(=O)=O (stereo not given) | 1.31 ± 6.3
55 | NC(=NOS(=O)(=O)c1ccc([N+](=O)[O-])cc1)c1ccncc1 | -4.24 ± 1.5
56 | Cn1cc(CN(CCO)Cc2cccs2)c(-c2cccc(Cl)c2)n1 | -2.19 ± 5.6
57 | CN1CCC(=C2c3ccccc3C=Cc3ccccc32)CC1 | 3.08 ± 0.91
58 | CN1CCN(CC/C=C2/c3ccccc3Sc3ccc(S(=O)(=O)N(C)C)cc32)CC1 | 12.4 ± 6.6
59 | COc1ccc2oc(C)c(C(N)=O)c2c1 | 5.21 ± 2.3
60 | CC1(C)Cc2ccccc2C(C(Cc2ccccc2)C(N)=O)=N1 (stereo not given) | 2.48 ± 4.3
